# In PubChem BioAssay (Tox21):
# “And” between values parts separate entries of the source, which are not always exact repeats. Equal values may be shown once. Inconclusive means that the source gave no clear call. Such entries were picked first, then a sample of the others. Potencies beside an inconclusive call are fits to weak or partial responses and may not hold up. The source made the active and inactive calls. Calls follow the shape of the dose curve; as a rule, active = well fitted activation curve with a large enough effect in the repeat runs; inconclusive = weak or mixed curves; inactive = no such curve, though single readings can be large or run the other way.
# Target: Aryl hydrocarbon receptor (Homo sapiens) (UniProt P35869)
# Sequence of UniProt P35869 (P35869 whole entry, looked up): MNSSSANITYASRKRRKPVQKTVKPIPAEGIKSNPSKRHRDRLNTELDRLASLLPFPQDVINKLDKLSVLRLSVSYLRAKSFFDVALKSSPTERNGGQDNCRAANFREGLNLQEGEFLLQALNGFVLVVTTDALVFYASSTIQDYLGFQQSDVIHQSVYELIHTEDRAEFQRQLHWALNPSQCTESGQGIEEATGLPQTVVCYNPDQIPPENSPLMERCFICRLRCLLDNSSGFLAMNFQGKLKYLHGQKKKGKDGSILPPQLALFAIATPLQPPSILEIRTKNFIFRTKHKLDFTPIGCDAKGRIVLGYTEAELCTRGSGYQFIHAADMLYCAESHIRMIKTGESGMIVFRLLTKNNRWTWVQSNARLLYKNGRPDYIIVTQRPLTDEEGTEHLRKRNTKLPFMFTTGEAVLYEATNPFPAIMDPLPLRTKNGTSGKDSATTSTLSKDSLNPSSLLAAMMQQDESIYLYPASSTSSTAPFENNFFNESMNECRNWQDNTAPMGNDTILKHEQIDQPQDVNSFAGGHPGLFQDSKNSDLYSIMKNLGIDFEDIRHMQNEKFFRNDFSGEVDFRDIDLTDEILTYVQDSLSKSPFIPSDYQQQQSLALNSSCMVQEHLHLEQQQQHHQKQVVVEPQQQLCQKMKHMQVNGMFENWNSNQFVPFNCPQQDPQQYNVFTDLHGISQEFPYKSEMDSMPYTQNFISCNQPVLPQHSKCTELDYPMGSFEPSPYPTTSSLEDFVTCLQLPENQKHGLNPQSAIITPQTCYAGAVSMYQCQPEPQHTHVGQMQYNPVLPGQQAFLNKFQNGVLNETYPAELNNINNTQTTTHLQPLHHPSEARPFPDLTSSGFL
# Test: qHTS assay to identify small molecule that activate the aryl hydrocarbon receptor (AhR) signaling pathway (AID 743085); also: nearly all actives have a fitted effect of over 15% in size;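 as to activation: HG2L7.5c1 human HepG2 liver cells with stably integrated DRE-driven firefly reporter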
# Details: HepG2 AhR-luc (HG2L7.5c1), luciferase, 24 h; series mostly up to 70.3 µM
# In short: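 Luminescence (ONE-Glo) from a dioxin-responsive-element luciferase reporter in HG2L7.5c1 HepG2 cells after 24 hr compound exposure at 37C; viability measured by CellTiter-Fluor fluorescence beforehand.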
# Potency is read from the fitted curve at half-maximal effect; tags tell the direction and shape of the fitted curve.
row,Compound,Potency
1,CC1c2ccccc2CN1NC(=O)c1ccc(Cl)c(S(N)(=O)=O)c1 (centres undefined),"inconclusive: 33.5 µM [activator, partial curve, poor fit]"
2,NC(=O)CCCCC(N)=O,inactive
3,O=C(O)c1c(Cl)cccc1Cl,inactive
4,CCCCCCCC(=O)OCCCCCC,inactive
5,Clc1nnc(Cl)c2ccccc12,"inconclusive: 34.2 µM [activator, single point]"
6,Oc1ccc2ccccc2c1,active: 49.7 µM and active: 27.3 µM
7,Cc1ccc(-n2nc(C(C)(C)C)cc2NC(=O)Nc2ccc(OCCN3CCOCC3)c3ccccc23)cc1,active: 15 µM
8,CCCCN1CCCC1C(=O)Nc1c(C)cc(C)cc1C (centres undefined),"inconclusive: 26.6 µM [activator, partial curve]"
9,CNS(=O)(=O)CCc1ccc2[nH]cc(C3CCN(C)CC3)c2c1,inactive
10,CNC[C@H](O)c1ccc(O)c(O)c1,"inconclusive: 21.7 µM [activator, partial curve]"
11,O=C1c2ccccc2C(=O)C1c1ccc2ccccc2n1,active: 10.8 µM
12,NC(Cc1ccc(F)cc1)C(=O)O (centres undefined),"inconclusive: 2.1 µM [activator, partial curve, poor fit]"
13,CCOC(=O)c1ccc(NC(=O)CN2CCCCC2)cc1,"inconclusive: 16.8 µM [activator, partial curve, poor fit]"
14,COc1nc(C)nc(Cl)c1NC1=NCCN1,"inconclusive: 12.7 µM [activator, partial curve]"
